# Experimental data as given in paper PMC11014909 (2024).
# Protein sequences, listed by entry. Tags and fused reporters are not part of them. Lines headed by an entry give the natural chain unless they say otherwise; changes in a name come on top.
# UniProt P22336: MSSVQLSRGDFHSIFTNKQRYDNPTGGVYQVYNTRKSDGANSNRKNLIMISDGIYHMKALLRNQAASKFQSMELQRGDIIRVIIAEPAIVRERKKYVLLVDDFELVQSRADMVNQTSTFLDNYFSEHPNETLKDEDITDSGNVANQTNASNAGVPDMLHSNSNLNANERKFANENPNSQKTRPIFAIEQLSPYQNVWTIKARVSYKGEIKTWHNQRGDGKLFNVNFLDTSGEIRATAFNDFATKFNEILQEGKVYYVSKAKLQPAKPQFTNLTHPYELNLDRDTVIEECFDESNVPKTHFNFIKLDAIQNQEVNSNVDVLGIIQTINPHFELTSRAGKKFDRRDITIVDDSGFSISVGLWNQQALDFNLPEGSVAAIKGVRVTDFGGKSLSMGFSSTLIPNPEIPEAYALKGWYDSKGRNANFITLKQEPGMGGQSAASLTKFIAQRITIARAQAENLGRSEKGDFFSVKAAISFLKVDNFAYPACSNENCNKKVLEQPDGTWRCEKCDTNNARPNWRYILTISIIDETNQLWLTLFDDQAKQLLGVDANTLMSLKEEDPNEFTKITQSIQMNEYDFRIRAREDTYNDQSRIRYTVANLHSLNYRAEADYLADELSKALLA
# No constants are given. Whether binding was seen depends on the method and setting. Binding seen in cells or lysates may run through a third protein. Some entries that bind do so weakly or less than the wild type. Where a sequence is shown, tags or fusion partners need not be part of it.
# Columns and labels:
# [1] = molecular target: T1, Pif1-4myc (nuclear Pif1, wild type) (S. cerevisiae) (UniProt P07271); assay: co-IP; yeast cleared lysates, anti-myc 9E10 and Protein G Dynabeads, 2 h at 4 °C; Rfa1 detected with anti-RPA antibody
# T1 sequence: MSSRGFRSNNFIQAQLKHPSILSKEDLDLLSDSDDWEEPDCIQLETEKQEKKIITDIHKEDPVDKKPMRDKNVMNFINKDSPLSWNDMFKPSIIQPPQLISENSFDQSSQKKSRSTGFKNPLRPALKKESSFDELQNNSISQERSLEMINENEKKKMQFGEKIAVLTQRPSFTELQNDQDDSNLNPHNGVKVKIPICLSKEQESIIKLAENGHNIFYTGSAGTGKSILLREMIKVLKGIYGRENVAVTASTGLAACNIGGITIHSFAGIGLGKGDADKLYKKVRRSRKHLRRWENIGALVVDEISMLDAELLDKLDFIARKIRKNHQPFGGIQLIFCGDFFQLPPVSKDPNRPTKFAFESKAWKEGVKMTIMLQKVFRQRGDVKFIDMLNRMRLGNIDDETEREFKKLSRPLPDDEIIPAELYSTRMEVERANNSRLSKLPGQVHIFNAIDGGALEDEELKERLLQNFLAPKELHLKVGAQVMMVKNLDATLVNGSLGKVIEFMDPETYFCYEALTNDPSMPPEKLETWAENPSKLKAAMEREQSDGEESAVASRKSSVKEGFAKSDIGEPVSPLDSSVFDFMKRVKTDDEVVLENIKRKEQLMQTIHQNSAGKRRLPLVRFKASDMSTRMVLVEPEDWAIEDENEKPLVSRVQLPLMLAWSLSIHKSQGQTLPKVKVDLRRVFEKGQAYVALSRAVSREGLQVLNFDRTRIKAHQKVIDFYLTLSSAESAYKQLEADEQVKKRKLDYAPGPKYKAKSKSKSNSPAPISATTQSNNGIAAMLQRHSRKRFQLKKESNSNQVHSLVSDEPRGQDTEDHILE
# [2] = molecular target: T2, GST-Pif1C(750–859) (S. cerevisiae) (UniProt P07271); assay: pull-down; GST fusions from E. coli immobilised on glutathione beads, incubated with yeast cleared lysate 2 h at 4 °C, washed twice with ELB (50 mM Tris-HCl pH 7.5, 50 mM NaCl, 5 mM EDTA, 1.5 mM BME); western blot with anti-RPA antibody; only the target purified
# T2 sequence: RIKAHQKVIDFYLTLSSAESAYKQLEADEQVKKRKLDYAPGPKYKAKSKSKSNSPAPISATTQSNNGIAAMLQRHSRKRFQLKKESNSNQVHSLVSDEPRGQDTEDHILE
# [3] = molecular target: T3, GST-Pif1N(42–250) (S. cerevisiae) (UniProt P07271); assay: as above
# T3 sequence: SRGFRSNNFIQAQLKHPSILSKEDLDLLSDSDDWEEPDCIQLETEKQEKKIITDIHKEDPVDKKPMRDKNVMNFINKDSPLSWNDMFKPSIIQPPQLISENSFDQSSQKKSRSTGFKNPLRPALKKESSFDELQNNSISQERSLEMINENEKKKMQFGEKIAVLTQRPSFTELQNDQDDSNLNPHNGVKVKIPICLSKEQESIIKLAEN
# [4] = molecular target: T3, GST-Pif1N(42–250) (S. cerevisiae); assay: pull-down; GST fusions from E. coli immobilised on glutathione beads, incubated with E. coli cleared lysate holding Rfa1N-4myc 2 h at 4 °C, washed twice with ELB; myc-specific western blot; only the target purified
# [5] = molecular target: T4, GST-Pif1N(56–77) (S. cerevisiae) (UniProt P07271); assay: as above
# T4 sequence: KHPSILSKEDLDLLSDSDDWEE
Substance,binding [1],binding [2],binding [3],binding [4],binding [5]
"Rfa1, the largest subunit of the RPA complex (from UniProt P22336 1-621)",binds,no binding,binds,–,–
Rfa1N(1–132)-4myc (from UniProt P22336 1-132) (domain or fragment),–,–,–,binds,binds
